{"source": "the supplement of paper PMC8728848", "binders": {"B1": {"name": "TES70 (Toxocara canis), Q9XYV5 (protein)", "chain": "MISVVLVAIALQISGSYAGACNSINDCGLFETCVNNMCVPDNMGCPMPCQAGQVCVPPNCVAAPAPQPVTTTTAAATTTTSARGRCNANAQCGAFEVCVNGMCQPNNAGCNPPCAANQVCVAPNCVPAPIPPPAQSTTTAPATTRAPPSCPPSWSPFSGHCYYVAVGSFLFNQASDWCTQTNSRPVWFDQSNVGTFGAELYFINVLAASRGVQTYWLGLNRQFGQWVWTNGSPLIFSNWRGSEPDGCCGGNVTCALVNYANPFGQWDDAGCGNIWRNPQGFICKKPLA"}}, "experiment_in_all_cases": "glycan array binding signal (z-score within array); higher = stronger binding", "conditions_in_all_cases": "glycan notation: IUPAC condensed, linker removed", "key": {"[1]": {"molecular_target": "Gal(b1-4)GlcNAc(b1-6)[Gal(b1-3)]GalNAc", "outline": "(§1)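 The binding signal is a Z-score computed within each array and averaged over linkers. Arrays of the same protein sequence at different concentrations or buffers were also averaged together. Data originate from 3228 arrays in the Consortium for Functional Glycomics database, kept only where the protein sequence was available.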"}, "Gal3S(b1-3)GalNAc": {"molecular_target": "Gal3S(b1-3)GalNAc", "outline": "as §1"}, "Gal3S(b1-3)GlcNAc": {"molecular_target": "Gal3S(b1-3)GlcNAc", "outline": "as §1"}, "[2]": {"molecular_target": "Gal3S(b1-3)[Fuc(a1-4)]GlcNAc", "outline": "as §1"}, "Gal3S(b1-4)Glc": {"molecular_target": "Gal3S(b1-4)Glc", "outline": "as §1"}, "Gal3S(b1-4)Glc6S": {"molecular_target": "Gal3S(b1-4)Glc6S", "outline": "as §1"}, "Gal3S(b1-4)GlcNAc": {"molecular_target": "Gal3S(b1-4)GlcNAc", "outline": "as §1"}, "Gal4S(b1-4)GlcNAc": {"molecular_target": "Gal4S(b1-4)GlcNAc", "outline": "as §1"}, "Gal6S(b1-4)Glc": {"molecular_target": "Gal6S(b1-4)Glc", "outline": "as §1"}, "Gal6S(b1-4)Glc6S": {"molecular_target": "Gal6S(b1-4)Glc6S", "outline": "as §1"}, "GalNAc(a1-3)Gal": {"molecular_target": "GalNAc(a1-3)Gal", "outline": "as §1"}, "GalNAc(a1-3)GalNAc": {"molecular_target": "GalNAc(a1-3)GalNAc", "outline": "as §1"}, "GalNAc(b1-3)GalNAc": {"molecular_target": "GalNAc(b1-3)GalNAc", "outline": "as §1"}, "GalNAc(b1-4)GlcNAc": {"molecular_target": "GalNAc(b1-4)GlcNAc", "outline": "as §1"}, "Glc(a1-4)Glc": {"molecular_target": "Glc(a1-4)Glc", "outline": "as §1"}, "Glc(b1-4)Glc": {"molecular_target": "Glc(b1-4)Glc", "outline": "as §1"}, "Glc(b1-6)Glc": {"molecular_target": "Glc(b1-6)Glc", "outline": "as §1"}, "[3]": {"molecular_target": "GlcNAc(b1-2)Gal(b1-3)GalNAc", "outline": "as §1"}, "GlcNAc(b1-3)Gal": {"molecular_target": "GlcNAc(b1-3)Gal", "outline": "as §1"}, "[4]": {"molecular_target": "GlcNAc(b1-3)Gal(b1-3)GalNAc", "outline": "as §1"}, "GlcNAc(b1-3)Gal(b1-4)Glc": {"molecular_target": "GlcNAc(b1-3)Gal(b1-4)Glc", "outline": "as §1"}, "[5]": {"molecular_target": "GlcNAc(b1-3)Gal(b1-4)GlcNAc", "outline": "as §1"}, "[6]": {"molecular_target": "GlcNAc(b1-3)[GlcNAc(b1-6)]GalNAc", "outline": "as §1"}, "[7]": {"molecular_target": "GlcNAc(b1-3)[GlcNAc(b1-6)]GlcNAc(b1-4)GlcNAc", "outline": "as §1"}, "[8]": {"molecular_target": "GlcNAc(b1-4)GlcNAc(b1-4)GlcNAc", "outline": "as §1"}, "[9]": {"molecular_target": "GlcNAc(b1-4)[GlcNAc(b1-6)]GalNAc", "outline": "as §1"}, "GlcNAc(b1-6)GalNAc": {"molecular_target": "GlcNAc(b1-6)GalNAc", "outline": "as §1"}, "Kdn(a2-3)Gal(b1-3)GlcNAc": {"molecular_target": "Kdn(a2-3)Gal(b1-3)GlcNAc", "outline": "as §1"}, "Kdn(a2-3)Gal(b1-4)GlcNAc": {"molecular_target": "Kdn(a2-3)Gal(b1-4)GlcNAc", "outline": "as §1"}, "[10]": {"molecular_target": "Man(a1-2)Man(a1-2)Man(a1-3)Man", "outline": "as §1"}, "[11]": {"molecular_target": "Man(a1-2)Man(a1-2)Man(a1-6)[Man(a1-3)]Man", "outline": "as §1"}, "Man(a1-2)Man(a1-3)Man": {"molecular_target": "Man(a1-2)Man(a1-3)Man", "outline": "as §1"}, "[12]": {"molecular_target": "Man(a1-2)Man(a1-3)[Man(a1-2)Man(a1-6)]Man", "outline": "as §1"}, "[13]": {"molecular_target": "Man(a1-2)Man(a1-3)[Man(a1-2)Man(a1-6)]Man(a1-6)[Man(a1-2)Man(a1-2)Man(a1-3)]Man(b1-4)GlcNAc(b1-4)GlcNAc", "outline": "as §1"}, "[14]": {"molecular_target": "Man(a1-2)Man(a1-3)[Man(a1-2)Man(a1-6)]Man(a1-6)[Man(a1-3)[Man(a1-6)]Man(a1-6)]Man(b1-4)GlcNAc(b1-4)GlcNAc", "outline": "as §1"}, "[15]": {"molecular_target": "Man(a1-2)Man(a1-3)[Man(a1-6)]Man(a1-6)[Man(a1-2)Man(a1-3)]Man(b1-4)GlcNAc(b1-4)GlcNAc", "outline": "as §1"}, "[16]": {"molecular_target": "Man(a1-2)Man(a1-6)[Man(a1-3)]Man(a1-6)[Man(a1-2)Man(a1-2)Man(a1-3)]Man(b1-4)GlcNAc(b1-4)GlcNAc", "outline": "as §1"}, "Man(a1-3)[Man(a1-6)]Man": {"molecular_target": "Man(a1-3)[Man(a1-6)]Man", "outline": "as §1"}, "[17]": {"molecular_target": "Man(a1-3)[Man(a1-6)]Man(a1-6)[Man(a1-3)]Man(b1-4)GlcNAc(b1-4)GlcNAc", "outline": "as §1"}, "Neu5Ac(a2-3)Gal": {"molecular_target": "Neu5Ac(a2-3)Gal", "outline": "as §1"}, "[18]": {"molecular_target": "Neu5Ac(a2-3)Gal(b1-3)GalNAc", "outline": "as §1"}, "[19]": {"molecular_target": "Neu5Ac(a2-3)Gal(b1-3)GalNAc6S", "outline": "as §1"}}, "note": "Some of the results follow."}
{"binder": "B1", "values": [{"measurement": "glycan array binding signal (z-score)", "setting": "[1]", "result": -0.106}, {"measurement": "glycan array binding signal (z-score)", "setting": "Gal3S(b1-3)GalNAc", "result": -0.126}, {"measurement": "glycan array binding signal (z-score)", "setting": "Gal3S(b1-3)GlcNAc", "result": -0.204}, {"measurement": "glycan array binding signal (z-score)", "setting": "[2]", "result": -0.117}, {"measurement": "glycan array binding signal (z-score)", "setting": "Gal3S(b1-4)Glc", "result": -0.131}, {"measurement": "glycan array binding signal (z-score)", "setting": "Gal3S(b1-4)Glc6S", "result": -0.137}, {"measurement": "glycan array binding signal (z-score)", "setting": "Gal3S(b1-4)GlcNAc", "result": -0.182}, {"measurement": "glycan array binding signal (z-score)", "setting": "Gal4S(b1-4)GlcNAc", "result": -0.14}, {"measurement": "glycan array binding signal (z-score)", "setting": "Gal6S(b1-4)Glc", "result": -0.045}, {"measurement": "glycan array binding signal (z-score)", "setting": "Gal6S(b1-4)Glc6S", "result": -0.188}, {"measurement": "glycan array binding signal (z-score)", "setting": "GalNAc(a1-3)Gal", "result": -0.128}, {"measurement": "glycan array binding signal (z-score)", "setting": "GalNAc(a1-3)GalNAc", "result": -0.203}, {"measurement": "glycan array binding signal (z-score)", "setting": "GalNAc(b1-3)GalNAc", "result": -0.148}, {"measurement": "glycan array binding signal (z-score)", "setting": "GalNAc(b1-4)GlcNAc", "result": -0.165}, {"measurement": "glycan array binding signal (z-score)", "setting": "Glc(a1-4)Glc", "result": -0.15}, {"measurement": "glycan array binding signal (z-score)", "setting": "Glc(b1-4)Glc", "result": -0.156}, {"measurement": "glycan array binding signal (z-score)", "setting": "Glc(b1-6)Glc", "result": -0.202}, {"measurement": "glycan array binding signal (z-score)", "setting": "[3]", "result": -0.136}, {"measurement": "glycan array binding signal (z-score)", "setting": "GlcNAc(b1-3)Gal", "result": -0.121}, {"measurement": "glycan array binding signal (z-score)", "setting": "[4]", "result": -0.063}, {"measurement": "glycan array binding signal (z-score)", "setting": "GlcNAc(b1-3)Gal(b1-4)Glc", "result": -0.074}, {"measurement": "glycan array binding signal (z-score)", "setting": "[5]", "result": -0.134}, {"measurement": "glycan array binding signal (z-score)", "setting": "[6]", "result": -0.172}, {"measurement": "glycan array binding signal (z-score)", "setting": "[7]", "result": -0.115}, {"measurement": "glycan array binding signal (z-score)", "setting": "[8]", "result": -0.18}, {"measurement": "glycan array binding signal (z-score)", "setting": "[9]", "result": 0.013}, {"measurement": "glycan array binding signal (z-score)", "setting": "GlcNAc(b1-6)GalNAc", "result": -0.124}, {"measurement": "glycan array binding signal (z-score)", "setting": "Kdn(a2-3)Gal(b1-3)GlcNAc", "result": -0.171}, {"measurement": "glycan array binding signal (z-score)", "setting": "Kdn(a2-3)Gal(b1-4)GlcNAc", "result": -0.044}, {"measurement": "glycan array binding signal (z-score)", "setting": "[10]", "result": -0.121}, {"measurement": "glycan array binding signal (z-score)", "setting": "[11]", "result": -0.17}, {"measurement": "glycan array binding signal (z-score)", "setting": "Man(a1-2)Man(a1-3)Man", "result": -0.064}, {"measurement": "glycan array binding signal (z-score)", "setting": "[12]", "result": -0.129}, {"measurement": "glycan array binding signal (z-score)", "setting": "[13]", "result": -0.157}, {"measurement": "glycan array binding signal (z-score)", "setting": "[14]", "result": -0.12}, {"measurement": "glycan array binding signal (z-score)", "setting": "[15]", "result": -0.175}, {"measurement": "glycan array binding signal (z-score)", "setting": "[16]", "result": -0.137}, {"measurement": "glycan array binding signal (z-score)", "setting": "Man(a1-3)[Man(a1-6)]Man", "result": -0.096}, {"measurement": "glycan array binding signal (z-score)", "setting": "[17]", "result": -0.136}, {"measurement": "glycan array binding signal (z-score)", "setting": "Neu5Ac(a2-3)Gal", "result": -0.121}, {"measurement": "glycan array binding signal (z-score)", "setting": "[18]", "result": 0.672}, {"measurement": "glycan array binding signal (z-score)", "setting": "[19]", "result": -0.145}]}
